In paper PMC10385607, “Optimization and Characterization of Novel ALCAM-Targeting Antibody Fragments for Transepithelial Delivery” (Pharmaceutics, 2023):
Changes are numbered by the printed parent chain.

B1: IF8-Fc (Fc fusion)
VH: [no letters for about 100 residues]GYVAFDYWGQGTLVTVSS
VL: SSELTQDPAVSVALGQTVRITCQGDSLRSYYASWYQQKPGQAPVLVIYGKNNRPSGIPDRFSGSSSGNTASLTITGAQAEDEADYYCNSSPPFSAEVVFGGGTKLTVL
notes: CDR1 QGDSLRSYYAS, CDR2 GKNNRPS, CDR3 NSSPPFSAEVV; scFv IF8 with the Fc fragment of murine IgG1 appended; Labelled with AF647 for flow cytometry; also called bivalent scFv-Fc fusion protein of IF8; parental antibody IF8-Fc
B2: db V2D7 (other)
VH: [no letters for about 100 residues]GYVAFDYWGQGTLVTVSS
VL: SSVLTQPPSVSVAPGQTARITCQGDSLRSGYASWYQQKPGQAPVLVVYGKNNRPSGIPERFSGSSSGNTATLTISRVEAGDEADYYCNSSPPFSAEVVFGGGTKLTVL
notes: as the VH of m9 (V2D7): VH of OPT with CDR1 STGAMS; linker; Bivalent two-chain diabody (24 kDa chain, 48 kDa native); also called diabody V2D7; V2D7 db; source: CHO cells, transient gene expression, purified (Protein A)
B3: db V200G1 (other)
VH: [no letters for about 100 residues]GYVAFDYWGQGTLVTVSS
VL: B2 VL with N51T, N52G
notes: as the VH of m10 (V200G1): VH of OPT with CDR1 STGAMS; linker; Bivalent two-chain diabody; also called V200G1 in db format; source: CHO cells, transient gene expression, purified (Protein A)

What was measured:
[1] = target: T1, Human ALCAM (28–501)-6xhistidine tag (human, UniProt Q13740); assay: ELISA; CD6 competition ELISA: plate coated with hALCAM (5 µg/mL in PBS); fixed murine CD6-Fc (0.25 µg/mL) with antibody 2000 nM to 0.002 nM in PBS, 2 h RT; bound CD6-Fc detected with HRP-coupled antihuman IgG; conditions: both partners purified
T1 construct: human ALCAM, residues 28-501, all five extracellular immunoglobulin domains; also called hALCAM; source: CHO cells, in-house, purified (Ni-NTA agarose)

[2] = target: T1, Human ALCAM (28–501)-6xhistidine tag; assay: as above; conditions: both partners purified; remark: listed apart in the source
T1 sequence (Q13740 28-501): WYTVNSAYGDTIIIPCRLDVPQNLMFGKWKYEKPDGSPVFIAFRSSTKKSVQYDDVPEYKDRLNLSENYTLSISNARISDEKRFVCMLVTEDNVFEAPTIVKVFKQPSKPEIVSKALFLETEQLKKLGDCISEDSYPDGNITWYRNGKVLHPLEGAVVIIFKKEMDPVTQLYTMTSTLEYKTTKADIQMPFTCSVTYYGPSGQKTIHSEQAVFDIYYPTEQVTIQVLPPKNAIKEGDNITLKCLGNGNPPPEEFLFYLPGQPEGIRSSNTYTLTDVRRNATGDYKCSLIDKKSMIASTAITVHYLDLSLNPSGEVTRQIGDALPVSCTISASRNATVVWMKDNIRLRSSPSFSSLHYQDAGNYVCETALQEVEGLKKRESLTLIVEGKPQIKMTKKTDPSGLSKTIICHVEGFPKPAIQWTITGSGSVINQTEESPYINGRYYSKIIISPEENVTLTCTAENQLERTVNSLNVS

Row | Binder | IC50 [1] | binding result [2]
1 | B1 | 7.33 ± 3.91 nM | –
2 | B2 | 13.4 ± 5.47 nM | –
3 | B3 | – | binds
